Test results reported in PubChem BioAssay AID588855 (National Center for Advancing Translational Sciences (NCATS), 2011).
The campaign covered roughly 410,000 compounds. About 5,000 (1.2%) were called active. Inconclusive results, whose numbers are uncertain, are shown with a selection of clear calls. The call rests on the fitted dose curve; in most records, active means well fitted inhibition curve with a large enough effect; inconclusive means small, poorly fitted or top-dose-only effect; inactive means no such curve, though single readings can be large or run the other way. Where the call is inconclusive, the potency comes from a doubtful curve fit.

test: qHTS for Inhibitors of TGF-b; settings: HepG2 CAGA-GFP TGF-b/SMAD3 reporter, GFP fluorescence, 18 h, TGF-beta stimulated, 500 pg/mL final; series mostly up to 46.1 µM; activity, negative = inhibition: at the top concentration; further: nearly all actives have a fitted effect of over 65% in size
Text: TGF-b is a main component in the TGF-b signaling pathway which plays diverse roles in cellular and development pathways. TGF-b is the mediated by the transcription factors Smads. Although the Smad-dependent pathway is the primary canonical TGF-b signaling node, TGF-b1 can also activate alternative signaling pathways, including those involving MAPK (ERK, JNK and p38). This interaction may mediate or enhance Smad-dependent responses, or can exert Smad-independent effects. The complexity of this signaling cascade allows the TGF-b superfamily to perform unique, overlapping or redundant functions. We believe that targeting the TGF-beta pathway at the Smad-transcription factor level may eliminate the consequences of disrupting the entire pathway and offer specificity without affecting other signaling pathways. Smad3 is the primary transducer of TGF-b's signals and Smad3 regulates many functions attributed to TGF-b signaling. We hypothesize that Smad3 inhibitors will selectively eliminate Smad3-specific TGF-beta signals without undesired off-target effects. We aim to identify Smad3-small molecule antagonists using a quantitative high throughput screening (qHTS) approach.
A high-throughput assay was developed to screen the NIH Molecular Libraries Small Molecule Repository (MLSMR). This is a cell based assay, where TGF-b is tagged with GFP. A counterscreen is run that looks at cytotoxicity (please see summary AID).
MH087449NIH Chemical Genomics Center [NCGC]
NIH Molecular Libraries Probe Centers Network [MLPCN]
Assay Submitter (PI): Sushil Rane, National Institute of […]
Suspensions of trypsinized HEPG2 CAGA-GFP cells were dispensed into white, tissue culture-treated, solid 1536-well plates at 5uL/well (1000 cells/well final concentration) in DMEM medium supplemented with 1% FBS. Plates were incubated at 37 degrees C for 2 hours, after which 23 nL of compounds or DMSO were delivered to each well using a pin tool. One uL of recombinant TGF-beta in DMEM (1% FBS) was then dispensed (500 pg/mL final concentration), and plates were incubated at 37 degrees C for 18 hours. The plates were measured on an Acumen eX3 Explorer plate reader for GFP fluorescence (ex488/em500-530). GFP values were calculated by determining the mean GFP fluorescence of individual cells, and compiling these values for each well to determine a total well GFP signal. The %Activity was determined from the corrected fluorescence values. A titration of the known TGF-B inhibitor SB431542 was included to monitor plate performance, while unstimulated HEPG2 (-TGF-B) control wells were used to normalize %Activity of identified inhibitors; unstimulated wells corresponded to 100%Activity (full inhibition), while stimulated cell controls (+DMSO) were used to normalize 0%Activity (no inhibition).
Concentration-response curves were fitted to the signals arising from the resulting fluorescence. The concentration-effect curves were then classified based on curve quality (r2), response magnitude and degree of measured activity, and compounds were subsequently categorized based on their curve class.
Potency means the concentration at half of the fitted maximal effect; tags describe the fitted curve by direction and shape.

Row | SMILES | Potency | activity, negative = inhibition
1 | COc1ccccc1Cc1c(-c2ccc(OC)c(OC)c2)nc2ccc(Cl)cn12 | inconclusive: 11.2 µM [inhibitor, partial curve, poor fit] | 
2 | O=C(NC12CC3CC(CC(C3)C1)C2)c1ccc(-c2cccc(Cl)c2)o1 |  | inactive: -33.9%
3 | Cc1cccc(-c2cccc(NC(=O)C3CCCN(C(=O)c4cccnc4)C3)c2)c1 (configuration not stated) | inconclusive: 8.91 µM [inhibitor, single point] | 
4 | COc1ccc(CC(=O)NCCc2sc(-c3ccc(Cl)cc3)nc2C)cc1OC | active: 7.94 µM | 
5 | C/C(N)=C(/C#N)C(=O)CSc1nc2cc(Cl)ccc2c(=O)n1-c1ccc(C)cc1 |  | inactive: 8%
6 | Clc1ccc(OCCOCCOc2cccc3cccnc23)c(Br)c1 | inconclusive: 35.5 µM [inhibitor, single point] | 
7 | CCOc1ccccc1NC(=O)COC(=O)c1cn(CC)c2nc(C)ccc2c1=O | inconclusive: 6.31 µM [inhibitor, single point] | 
8 | O=C(Nc1cccc(C(F)(F)F)c1)N1CCC(CN2CCCCCC2)CC1 |  | inactive: -0.272%
9 | CC1CCCCC1NC(=O)CSc1nnc(C(F)(F)F)n1C (configuration not stated) |  | inactive: -8.14%
10 | COc1ccccc1C(=O)Nc1ccc(NC(=O)c2cccs2)cc1 | inconclusive: 0.112 µM [inhibitor, full curve, poor fit] | 
11 | C=CCNc1ncnc2c1ncn2[C@H]1CN(Cc2ccc3c(c2)OCO3)C[C@@H](CO)O1 |  | inactive: 3.93%
12 | CCOc1ccc(S(=O)(=O)NCC(c2ccco2)S(=O)(=O)c2ccc(C)cc2)cc1 (configuration not stated) | inconclusive: 11.2 µM [inhibitor, partial curve, poor fit] | 
13 | COc1ccc(Nc2cc(C(=O)NCCCN(C)Cc3ccccc3)c3ccccc3n2)c(OC)c1 | inconclusive: 22.4 µM [inhibitor, single point] | 
14 | Cc1ccc(-n2ncc(Br)c(Br)c2=O)cc1 | active: 3.16 µM | 
15 | Nc1ncc(-c2ccc(-c3ccccc3)cc2F)cc1-c1ccccc1F | inconclusive: 35.5 µM [inhibitor, single point] | 
16 | COCCn1nnnc1CN(CCc1ccc(OC)c(OC)c1)Cc1cc2ccc(C)cc2[nH]c1=O | inconclusive: 35.5 µM [inhibitor, single point] | 
17 | O=C(Nc1nc(-c2cccs2)cs1)c1ccco1 |  | inactive: -21.7%
18 | COc1cccc(C(C)(O)c2nc(-c3ccoc3)cs2)c1 (configuration not stated) |  | inactive: -10.4%
19 | CC1(C)Cc2[nH]c(=S)c(C#N)cc2CO1 |  | inactive: -0.515%
20 | Cc1nc(N/N=C/c2ccc(O)cc2)c2cnn(-c3ccccc3)c2n1 |  | inactive: -11.5%
21 | CN1CCCN(C(c2ccccc2)c2ccc(Cl)cc2)CC1 (configuration not stated) | inconclusive: 35.5 µM [inhibitor, single point] | 
22 | COc1ccc(OC)c(C2c3c(-c4ccc(Br)cc4)n[nH]c3C(=O)N2c2ccc(Cl)cc2)c1 (configuration not stated) | active: 3.98 µM | 
23 | O=C(c1ccccc1-c1ncc[nH]1)N1CCCC(Nc2ccc(F)cc2)C1 (configuration not stated) |  | inactive: 0.677%
24 | CC(C)(C)NC(=O)CSc1nccn1Cc1ccccc1 | inconclusive: 3.55 µM [inhibitor, single point] | 

Row | SMILES | Potency | activity, negative = inhibition
25 | N#CC1(NC(=O)CSc2nnc(-c3ccccc3F)n2N)CCCCC1 |  | inactive: -3.83%
26 | CCCCCn1c(NC(=O)c2ccco2)c(S(=O)(=O)c2ccc(C)cc2)c2nc3ccccc3nc21 | inconclusive: 22.4 µM [inhibitor, single point] | 
27 | Cc1cc(Cl)ccc1C(=O)C1CCCN(C(=O)c2ccsc2)C1 (configuration not stated) | inconclusive: 28.2 µM [inhibitor, single point] | 
28 | CC(=O)c1c(C(C)=O)c(C)n(-c2nc(-c3cccs3)c(C)s2)c1C |  | inactive: 3.23%
29 | CCCOc1ccc(C(=O)Nc2ccc(S(=O)(=O)NC3=NCCCCC3)cc2)cc1 |  | inactive: 0%
30 | CCN(c1ccc2c(c1)OCO2)S(=O)(=O)c1cc2c(cc1Br)CCN2C(=O)C1CC1 |  | inactive: 9.11%
31 | COc1ccc(CCNC(=O)CCCn2c(=O)c3ccccc3n(CC(=O)Nc3cccc(C)c3)c2=O)cc1OC | inconclusive: 35.5 µM [inhibitor, single point] | 
32 | Nc1n[nH]c(N)c1N=Nc1ccccc1 |  | inactive: 26.1%
33 | CC(=O)Nc1ccc(S(=O)(=O)NCc2ccc3c(c2)CCN3C(C)=O)cc1 |  | inactive: -11.1%
34 | COc1ccccc1CN1CC(C(=O)N(C)CCc2nc3ccc(F)cc3[nH]2)CCC1=O (configuration not stated) |  | inactive: -9.8%
35 | COCCNC(=O)CN1C(=O)/C(=C/c2ccccc2)Oc2ccc(C(C)(C)C)cc21 | inconclusive: 25.1 µM [inhibitor, single point] | 
36 | CCc1nc2c(OCc3cc(Cl)cc(Cl)c3)cccn2c1N(C=O)Cc1ccc(OC)cc1 | inconclusive: 25.1 µM [inhibitor, single point] | 
37 | COc1ccc(C(=O)NNC(=O)c2ccc3ccccc3c2O)cc1 |  | inactive: -3.57%
38 | Cc1ccccc1N1CCN(C2CCCN(C(=O)c3csc(C(C)C)n3)C2)CC1 (configuration not stated) | inconclusive: 6.31 µM [inhibitor, single point] | 
39 | CCOc1cc(C(=O)N(Cc2nc(-c3ccc(C)cc3)no2)C(C)C)cc(OCC)c1OCC | inconclusive: 35.5 µM [inhibitor, partial curve, poor fit] | 
40 | Cc1ccc(NC(=O)c2ccc(S(=O)(=O)N3CC(C)CC(C)C3)cc2)cc1S(=O)(=O)N1CCOCC1 (configuration not stated) | inconclusive: 3.16 µM [inhibitor, full curve] | 
41 | CCNc1nc2c(c(=O)n(C)c(=O)n2C)n1Cc1ccc(Cl)cc1 | inconclusive: 15.8 µM [inhibitor, partial curve, poor fit] | 
42 | COc1ccc(C(=O)/C(C#N)=N/Nc2ccc([N+](=O)[O-])cc2)cc1 | inconclusive: 1 µM [inhibitor, full curve, poor fit] | 
43 | Cc1ccc(Cl)cc1-c1cc(C(=O)NCc2cc(C(F)(F)F)cc(C(F)(F)F)c2)[nH]n1 | active: 11.2 µM | 
44 | CCOc1ccc(-c2c(C)nn3c(C)c(C(=O)NCc4cccc(OC)c4)cnc23)cc1OCC | inconclusive: 5.01 µM [inhibitor, full curve] | 
45 | CCc1ccc(CN2C(=O)c3ccccc3C2C(=O)NC2CCCCCC2)cc1 (configuration not stated) |  | inactive: 12.5%
46 | Cc1nc2ccc(Br)cn2c(=O)c1Cl |  | inactive: 1.19%
47 | COc1ccc2nc(/N=C(\N)NC(=O)N3c4ccccc4Sc4ccccc43)nc(C)c2c1 |  | inactive: -3.85%
48 | Cc1cccc(C(=O)NC2CCN(S(=O)(=O)c3ccc(F)cc3)CC2)c1 |  | inactive: -17.7%

Row | SMILES | Potency | activity, negative = inhibition
49 | O=C1C(NS(=O)(=O)c2cccs2)=C(N2CCN(Cc3ccccc3)CC2)C(=O)c2ccccc21 | active: 8.91 µM | 
50 | Cc1ccc(S(=O)(=O)N2CCCC(C(=O)NCc3ccco3)C2)cc1Cl (configuration not stated) | inconclusive: 7.94 µM [inhibitor, partial curve, poor fit] | 
51 | CC(Nc1cc(N2CCCC2)ccc1[N+](=O)[O-])c1ccccc1 (configuration not stated) | inconclusive: 3.16 µM [inhibitor, full curve, poor fit] | 
52 | CCn1c(=O)c(C(=O)CN(C)Cc2ccc(F)cc2)c(N)n(Cc2ccccc2)c1=O |  | inactive: -1.96%
53 | CN(C)C1CCCCC=CC(=O)NC1 (configuration not stated) |  | inactive: 2.81%
54 | O=C(O)c1cc(-c2cc3ccccc3o2)nn1-c1ccccc1 | inconclusive: 3.16 µM [inhibitor, single point] | 
55 | Cc1cccc(NC(=O)c2ccc([N+](=O)[O-])o2)n1 | inconclusive: 22.4 µM [inhibitor, single point] | 
56 | Cc1ccc(C(=O)c2cc([N+](=O)[O-])ccc2N2CCCCC2)cc1C | inconclusive: 12.6 µM [inhibitor, partial curve, poor fit] | 
57 | Cc1[nH]c2ccccc2c1/C=N\NC(=O)c1ccccc1Cl |  | inactive: 2.19%
58 | CCSc1nsc(NC(=O)Nc2cccc(C(C)=O)c2)n1 | inconclusive: 35.5 µM [inhibitor, single point] | 
59 | COc1ccc(Nc2c3c(nc4ccccc24)CCCC3)cc1OC | inconclusive: 35.5 µM [inhibitor, single point] | 
60 | Cc1ccc(NCC(=O)N/N=C/c2c[nH]c3ccccc23)cc1 | inconclusive: 22.4 µM [inhibitor, partial curve, poor fit] | 
61 | CCOc1ccccc1N1CCN(C(=O)c2ccc(S(=O)(=O)Nc3ccccc3)cc2)CC1 | inconclusive: 35.5 µM [inhibitor, single point] | 
62 | Cn1nnnc1SCCNCc1cc(Cl)ccc1OCc1ccccc1 | inconclusive: 35.5 µM [inhibitor, single point] | 
63 | Cc1cc(C)c(NC(=O)C(C)N2CCCCCC2)c(C)c1 (configuration not stated) |  | inactive: -11.4%
64 | CN(C)c1ccc(NC(=S)Nc2ccc3c(c2)c(=O)n(C)n3-c2ccc(C(C)(C)C)cc2)cc1 | inconclusive: 22.4 µM [inhibitor, single point] | 
65 | Cn1c(=O)c2c([nH]c(=S)n2Cc2ccc(Cl)cc2)n(C)c1=O |  | inactive: 4.2%
66 | COC(=O)N1C(=O)[C@](c2ccc(Cl)cc2)(C(C)C)N1C(=O)OC | inconclusive: 20 µM [inhibitor, single point] | 
67 | Cc1ccc(Cn2cnc3sc4c(c3c2=O)CCC4)c(C)c1 | inconclusive: 15.8 µM [inhibitor, single point] | 
68 | Cc1c(NC(=O)c2cc(-n3cnnc3)ccc2Cl)cccc1-c1nc2ccccc2s1 | inconclusive: 11.2 µM [inhibitor, partial curve, poor fit] | 
69 | COc1cc(CN2CCC(C(=O)NC(c3ccc(-c4ccccc4)cc3)c3cnccn3)CC2)cc(OC)c1 (configuration not stated) | inconclusive: 22.4 µM [inhibitor, single point] | 
70 | Cc1nn(-c2nc3ccccc3[nH]2)c(N)c1-c1ccc(Cl)cc1 | inconclusive: 20 µM [inhibitor, partial curve, poor fit] | 
71 | NC(=O)c1ccccc1NS(=O)(=O)c1ccccc1 |  | inactive: -19.6%
72 | Cc1ccc(-n2c(SCC(=O)Nc3cc(S(=O)(=O)N4CCOCC4)ccc3Cl)nc3ccccc3c2=O)cc1 | inconclusive: 1.12 µM [inhibitor, partial curve, poor fit] | 
